{"source": "PubChem BioAssay AID686978", "about": "(National Center for Advancing Translational Sciences (NCATS), 2013)", "note": "Out of some 420,000 compounds screened, about 64,000 (15%) were called active. Inconclusive results, whose numbers are uncertain, are shown with a selection of clear calls. The call rests on the fitted dose curve; in most records, active means well fitted inhibition curve with a large enough effect; inconclusive means small, poorly fitted or top-dose-only effect; inactive means flat fitted curve, though single readings scatter. No potency is given beside an inconclusive call; the fits are too rough. On the % scale 0 is the no-effect control and ±100 the full control effect; potency means the concentration at half of the fitted maximal effect; tags describe the fitted curve by direction and shape.", "data": [{"test": "qHTS for Inhibitors of human tyrosyl-DNA phosphodiesterase 1 (TDP1): qHTS in cells in absence of CPT; further: nearly all actives have a fitted effect of over 55% in size", "conditions": "DT40 Tdp1-/- hTDP1 cells, no CPT, ATP luminescence, 48 h; activity change, negative = growth inhibition: at 46.2 µM (top of the series)", "how_it_was_run": "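Luminescent ATP content (CellTiter-Glo) served as the growth readout. Knockout chicken DT40 cells expressing human TDP1 were exposed to compounds without camptothecin for a minimum 48 hr at 37 °C.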", "values": [{"smiles": "CCOC(=O)C1(C)NC(c2ccc(OC)cc2OC)C2C(=O)N(CC)C(=O)C21", "note": "(stereo not given)", "Potency": "inactive"}, {"smiles": "CC1CC(C)CN(CCCNC(=O)Cn2cccc2C(=O)c2ccccc2)C1", "note": "(stereo not given)", "Potency": "inactive"}, {"smiles": "O=C(/C=C/c1cn(CC(O)CN2CCCCC2)c2ccccc12)c1ccccc1", "note": "(stereo not given)", "Potency": "inconclusive [inhibitor, single point]"}, {"smiles": "Fc1ccc(N/N=C/c2ccc(N3CCOCC3)cc2)c(F)c1", "Potency": "inconclusive [inhibitor, single point]"}, {"smiles": "CN(C)c1ccc(C2C3=C(CCCC3=O)OC3=C2C(=O)CCC3)cc1", "Potency": "inactive"}, {"smiles": "Cc1ccc(C(=O)CCS(=O)(=O)c2ccc(Br)cc2)cc1", "Potency": "active: 5.17 µM"}, {"smiles": "CC(=O)NCCC(=O)Nc1nc(-c2ccc3ccccc3c2)cs1", "Potency": "inconclusive [inhibitor, partial curve]"}, {"smiles": "O=S1(=O)CC(N2CCC(c3ccccc3)CC2)CN1Cc1ccccc1", "note": "(stereo not given)", "Potency": "inconclusive [inhibitor, single point]"}, {"smiles": "COc1ccc(NC(C)=O)cc1NC(=O)CSc1nnc(-c2ccccc2)n1N", "Potency": "inactive"}, {"smiles": "CC(C)C1C(=O)N(Cc2cn(CC3CCCCC3)nn2)CCS(=O)(=O)N1Cc1ccc(-c2ccc(Cl)nc2)cc1", "note": "(stereo not given)", "Potency": "active: 10.3 µM"}, {"smiles": "CSc1nsc(SC)c1C(=O)NCCNS(=O)(=O)c1ccc(C)cc1", "activity change, negative = growth inhibition": "inconclusive: -33.3% [inhibitor]"}, {"smiles": "COc1ccc(C2=NS(=O)(=O)N(C)C(C(=O)N3CCC(C)CC3)=C2)cc1", "Potency": "inconclusive [inhibitor, single point]"}, {"smiles": "O=S1(=O)CC(N2CCN(Cc3ccccc3F)CC2)CN1Cc1cn(Cc2ccc(C(F)(F)F)cc2)nn1", "note": "(stereo not given)", "Potency": "active: 9.2 µM"}, {"smiles": "Cc1ccc(Cc2ccc(C(=O)NNC(N)=S)o2)cc1", "Potency": "inactive"}, {"smiles": "N#Cc1ccc(CN2CC3(CCN(C(=O)c4ccco4)CC3)C2)cc1", "Potency": "inactive"}, {"smiles": "CC(Sc1ncnc2c1cnn2-c1ccccc1)C(=O)Nc1ccc(N2CCOCC2)cc1", "note": "(stereo not given)", "Potency": "inactive"}, {"smiles": "COc1ccc2[nH]c3c(c2c1)CCN1C(=O)N([C@@H](C)C(=O)NC2CC2)C(=O)[C@]31C", "Potency": "inconclusive [inhibitor, single point]"}, {"smiles": "COc1cccc(C(=O)NCC(=O)OCc2ccc(F)cc2Cl)c1", "Potency": "inactive"}, {"smiles": "COC(=O)c1cc2ccsc2n1CC(=O)N(C)c1ccccc1", "activity change, negative = growth inhibition": "inconclusive: -32.1% [inhibitor]"}, {"smiles": "COC(=O)c1ccc(S(=O)(=O)N2Cc3ccccc3C2)cc1", "Potency": "inactive"}, {"smiles": "C=CCn1c(CNC(=O)c2ccco2)nnc1SCC(=O)c1ccc(F)cc1", "Potency": "inconclusive [inhibitor, full curve, poor fit]"}, {"smiles": "CNC(=O)COC(=O)c1c2c(nc3ccccc13)CCC2", "Potency": "inconclusive [inhibitor, partial curve]"}, {"smiles": "O=C(N/N=C/c1c[nH]c2ccccc12)C1COc2ccccc2O1", "note": "(stereo not given)", "Potency": "active: 13 µM"}, {"smiles": "CCCn1nc(C(=O)N2CCc3ccccc3C2)c2ccccc2c1=O", "Potency": "inconclusive [inhibitor, single point]"}, {"smiles": "CCOC(=O)N1C(=O)C2(CCCCC2)N(c2ccccc2Cl)C1=S", "Potency": "inconclusive [inhibitor, single point]"}, {"smiles": "CC1=C(C(=O)Nc2cc(Cl)ccc2C)C2(CCCCC2)OC1=O", "Potency": "inconclusive [inhibitor, single point]"}, {"smiles": "O=C(CCCSc1nc2ccccc2[nH]1)N1CCN(c2ccccc2)CC1", "Potency": "inconclusive [inhibitor, single point]"}, {"smiles": "Cc1ccc(-c2cc(-c3ccccc3C)[nH]n2)c(O)c1", "Potency": "inconclusive [inhibitor, single point]"}, {"smiles": "CCn1c2ccccc2c2cc(NC(=O)C(C)Oc3ccc(OC)cc3)ccc21", "note": "(stereo not given)", "Potency": "inconclusive [inhibitor, single point]"}, {"smiles": "Cc1cc(NC(=O)CSc2nc3c(c(=O)n2CCc2ccccc2)SC(C)C3)no1", "note": "(stereo not given)", "activity change, negative = growth inhibition": "inconclusive: -32% [inhibitor]"}, {"smiles": "Cc1nc2ccccc2c(N)c1C(=O)/C=C/c1ccccc1", "Potency": "inconclusive [inhibitor, single point]"}, {"smiles": "CC(=O)Nc1ccc(SCc2ncc(-c3ccccc3)o2)cc1", "activity change, negative = growth inhibition": "inconclusive: -37.4% [inhibitor]"}, {"smiles": "N#Cc1ccc(-c2nc3ccc(Br)cn3c2Cc2ccccc2)cc1", "Potency": "active: 9.2 µM"}, {"smiles": "CCc1nn2c(=O)cc(CSc3nc(C)cc(=O)[nH]3)nc2s1", "Potency": "inactive"}, {"smiles": "CCC(C(=O)NC1CCCC1)n1c(-c2ccncc2)nc2ccccc21", "note": "(stereo not given)", "Potency": "inactive"}, {"smiles": "CCCCN(C(=O)c1ccc([N+](=O)[O-])o1)c1c(N)n(CCCC)c(=O)[nH]c1=O", "Potency": "inactive"}, {"smiles": "CCOc1ccc(NC(=O)C2CCN(c3nc4ccccc4[nH]3)CC2)cc1", "Potency": "active: 23.1 µM"}, {"smiles": "CCNC(=O)C1(C)CCN(Cc2ccc(C(F)(F)F)cc2)C1", "note": "(stereo not given)", "Potency": "inactive"}, {"smiles": "CC1CN(C(=O)c2cc3cc(Cl)ccc3[nH]2)CC(C)O1", "note": "(stereo not given)", "Potency": "inconclusive [inhibitor, single point]"}, {"smiles": "COc1ccc(CCN2CC(C(=O)N3CCCCCC3)CCC2=O)cc1", "note": "(stereo not given)", "Potency": "inactive"}, {"smiles": "CCSc1ccc(C(=O)Nc2ccc(-c3nc4ccc(C)cc4s3)cc2)cc1", "Potency": "inconclusive [inhibitor, full curve, poor fit]"}, {"smiles": "O=c1[nH]c(NCc2ccco2)nnc1Cc1ccccc1Cl", "Potency": "active: 4.11 µM"}, {"smiles": "COC(=O)[C@@]12C[C@@H](CC(=O)NCc3cccc(C(F)(F)F)c3)C(=O)N(CCc3ccc(OC)c(OC)c3)C1=CCC(C)(C)C2", "Potency": "active: 11.6 µM"}, {"smiles": "Cc1ccc(-c2nn(C)c(=O)c3ccccc23)cc1S(=O)(=O)NCCN1CCOCC1", "Potency": "inconclusive [inhibitor, single point]"}, {"smiles": "Cc1ccccc1-n1c(-c2csc(C)c2C)n[nH]c1=S", "Potency": "inconclusive [inhibitor, single point]"}, {"smiles": "Clc1ccc(-c2nnc3n2-c2ccccc2SC3)cc1", "Potency": "inconclusive [inhibitor, partial curve, poor fit]"}, {"smiles": "CCN1CCc2nc3ccccc3c(C(=O)Nc3ccc(C#N)cc3)c2C1", "Potency": "inconclusive [inhibitor, partial curve]"}, {"smiles": "COc1ccc(S(=O)(=O)N(C)c2ccc(C(=O)N3CCN(c4ccccc4)CC3)cc2)cc1OC", "Potency": "active: 16.4 µM"}, {"smiles": "Cc1c(Cc2ccccc2)c(=O)oc2cc(OCC(=O)c3ccccc3)ccc12", "Potency": "inconclusive [inhibitor, partial curve]"}, {"smiles": "COCCN1Cc2cccc(C(=O)Nc3ccc(C)cc3)c2C1=O", "Potency": "inconclusive [inhibitor, partial curve]"}, {"smiles": "CCOc1ccc(N2C(=O)CS(=O)(=O)C23C(=O)N(Cc2cccc(Cl)c2)c2ccccc23)cc1", "note": "(stereo not given)", "Potency": "inconclusive [inhibitor, single point]"}, {"smiles": "Cc1ccc(NC(=O)C2(C)CCN2CCc2ccccc2)cc1O", "note": "(stereo not given)", "Potency": "inactive"}, {"smiles": "CC(C)(C)OC(=O)N1CCC(c2c(C(=O)NCCc3ccsc3)cnn2-c2ccccc2Cl)CC1", "Potency": "inconclusive [inhibitor, single point]"}, {"smiles": "CCC(CC)C(=O)OCc1cc(=O)n2nc(C3CCCCC3)sc2n1", "Potency": "inconclusive [inhibitor, single point]"}, {"smiles": "COc1ccc(-c2nn(-c3ccccc3)cc2CNC[C@H]2O[C@@H](n3cnc4c(N)ncnc43)[C@H](O)[C@@H]2O)cc1", "Potency": "inactive"}, {"smiles": "Cc1ccc(-c2c(C(=O)N3CCN(c4cccc(C)c4)C(C)C3)oc(=O)c3ccccc23)cc1", "note": "(stereo not given)", "Potency": "inconclusive [inhibitor, single point]"}, {"smiles": "CCOc1ccc(CN2CCc3nc(N4CCN(c5ncccn5)CC4)ncc3C2)cc1OC", "Potency": "inconclusive [inhibitor, partial curve, poor fit]"}, {"smiles": "CCOC(=O)c1c(C)[nH]c(C)c1S(=O)(=O)N(C)CC(=O)N1CCN(c2ccc(Cl)cc2)CC1", "Potency": "inconclusive [inhibitor, partial curve, poor fit]"}, {"smiles": "COC(=O)C1=C(C)N=C2SCCC(=O)N2C1c1ccc(OCc2ccccc2)c(OC)c1", "note": "(stereo not given)", "Potency": "inconclusive [inhibitor, single point]"}, {"smiles": "Cn1nc(-c2ccccc2)c(-c2nc(-c3cccc(C(F)(F)F)c3)no2)c1Cl", "Potency": "active: 1.64 µM"}, {"smiles": "CCOC(=O)c1ccccc1NC(=O)c1ccccc1NS(C)(=O)=O", "Potency": "inconclusive [inhibitor, single point]"}, {"smiles": "Cc1cc(C)c2c(c1)SC1=NC(c3ccccc3)(C(F)(F)F)NC(=O)N12", "note": "(stereo not given)", "Potency": "inconclusive [inhibitor, single point]"}, {"smiles": "COc1ccc(Nc2nc(S(=O)(=O)c3ccc(C)cc3)c(Cl)s2)cc1", "Potency": "inconclusive [inhibitor, single point]"}, {"smiles": "NC(=O)C1C(=O)c2ccccc2C1(C[N+](=O)[O-])c1ccccc1", "note": "(stereo not given)", "Potency": "inactive"}, {"smiles": "Cc1ccc(OCC(=O)NNC(=O)C2CCCO2)c(C)c1", "note": "(stereo not given)", "Potency": "inactive"}, {"smiles": "O=C(CSCc1ccc(Cl)c(Cl)c1)Nc1c[nH]c(=O)[nH]c1=O", "Potency": "inconclusive [inhibitor, partial curve, poor fit]"}, {"smiles": "O=Cc1ccc(OCC(=O)Nc2ccccc2-c2ccccc2)cc1", "Potency": "inconclusive [inhibitor, single point]"}, {"smiles": "CCCCCCn1c(N2CCCC2)nc2c1c(=O)[nH]c(=O)n2C", "Potency": "inconclusive [inhibitor, single point]"}, {"smiles": "Cc1nc2sc(C(c3ccco3)N3CCOCC3)c(O)n2n1", "note": "(stereo not given)", "Potency": "inactive"}, {"smiles": "CCN(CC)CCN(C(=O)/C=C/c1cccs1)c1nc2ccc(Cl)cc2s1", "Potency": "inconclusive [inhibitor, single point]"}]}]}
